From the supplement of paper PMC8728848
This is one part of the list.

Assays:
Experiment in all cases: glycan array binding signal (z-score within array); higher = stronger binding
Settings in all cases: glycan notation: IUPAC condensed, linker removed
[1] = target: Neu5Ac(a2-3)Gal(b1-4)GlcNAc(b1-3)Gal(b1-4)GlcNAc(b1-2)Man(a1-3)[Neu5Ac(a2-3)Gal(b1-4)GlcNAc(b1-3)Gal(b1-4)GlcNAc(b1-2)Man(a1-6)]Man(b1-4)GlcNAc(b1-4)GlcNAc
Method in brief: (§1)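 Columns mapping to the same glycan were averaged after glycan names were converted to IUPAC-condensed notation. The data come from 3228 arrays in the Consortium for Functional Glycomics database, limited to those with an available protein sequence. Binding is reported as a within-array Z-score averaged across arrays of one protein sequence and across linkers.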

[2] = target: Neu5Ac(a2-3)Gal(b1-4)GlcNAc(b1-3)Gal(b1-4)GlcNAc(b1-3)Gal(b1-4)GlcNAc
Method in brief: as §1

[3] = target: Neu5Ac(a2-3)Gal(b1-4)GlcNAc(b1-3)Gal(b1-4)GlcNAc(b1-3)Gal(b1-4)GlcNAc(b1-2)Man(a1-3)[Neu5Ac(a2-3)Gal(b1-4)GlcNAc(b1-3)Gal(b1-4)GlcNAc(b1-3)Gal(b1-4)GlcNAc(b1-2)Man(a1-6)]GalNAc
Method in brief: as §1

[4] = target: Neu5Ac(a2-3)Gal(b1-4)GlcNAc(b1-3)Gal(b1-4)GlcNAc(b1-3)GalNAc
Method in brief: as §1

[5] = target: Neu5Ac(a2-3)Gal(b1-4)GlcNAc(b1-3)Gal(b1-4)GlcNAc(b1-3)[Neu5Ac(a2-3)Gal(b1-4)GlcNAc(b1-3)Gal(b1-4)GlcNAc(b1-6)]GalNAc
Method in brief: as §1

[6] = target: Neu5Ac(a2-3)Gal(b1-4)GlcNAc(b1-3)Gal(b1-4)GlcNAc(b1-6)[Gal(b1-3)]GalNAc
Method in brief: as §1

[7] = target: Neu5Ac(a2-3)Gal(b1-4)GlcNAc(b1-3)Gal(b1-4)[Fuc(a1-3)]GlcNAc
Method in brief: as §1

[8] = target: Neu5Ac(a2-3)Gal(b1-4)GlcNAc(b1-3)GalNAc
Method in brief: as §1

[9] = target: Neu5Ac(a2-3)Gal(b1-4)GlcNAc(b1-3)[Neu5Ac(a2-3)Gal(b1-4)GlcNAc(b1-6)]GalNAc
Method in brief: as §1

[10] = target: Neu5Ac(a2-3)Gal(b1-4)GlcNAc(b1-6)GalNAc
Method in brief: as §1

[11] = target: Neu5Ac(a2-3)Gal(b1-4)GlcNAc(b1-6)[Gal(b1-3)]GalNAc
Method in brief: as §1

[12] = target: Neu5Ac(a2-3)Gal(b1-4)GlcNAc(b1-6)[Neu5Ac(a2-3)Gal(b1-3)]GalNAc
Method in brief: as §1

[13] = target: Neu5Ac(a2-3)Gal(b1-4)GlcNAc6S
Method in brief: as §1

[14] = target: Neu5Ac(a2-3)Gal(b1-4)[Fuc(a1-3)]GlcNAc
Method in brief: as §1

[15] = target: Neu5Ac(a2-3)Gal(b1-4)[Fuc(a1-3)]GlcNAc(b1-2)Man
Method in brief: as §1

[16] = target: Neu5Ac(a2-3)Gal(b1-4)[Fuc(a1-3)]GlcNAc(b1-3)Gal
Method in brief: as §1

[17] = target: Neu5Ac(a2-3)Gal(b1-4)[Fuc(a1-3)]GlcNAc(b1-3)Gal(b1-4)GlcNAc
Method in brief: as §1

[18] = target: Neu5Ac(a2-3)Gal(b1-4)[Fuc(a1-3)]GlcNAc(b1-3)Gal(b1-4)[Fuc(a1-3)]GlcNAc(b1-3)Gal(b1-4)[Fuc(a1-3)]GlcNAc
Method in brief: as §1

[19] = target: Neu5Ac(a2-3)Gal(b1-4)[Fuc(a1-3)]GlcNAc(b1-3)GalNAc
Method in brief: as §1

[20] = target: Neu5Ac(a2-3)Gal(b1-4)[Fuc(a1-3)]GlcNAc(b1-6)[Gal(b1-3)]GalNAc
Method in brief: as §1

[21] = target: Neu5Ac(a2-3)Gal(b1-4)[Fuc(a1-3)]GlcNAc(b1-6)[Neu5Ac(a2-3)Gal(b1-3)]GalNAc
Method in brief: as §1

[22] = target: Neu5Ac(a2-3)Gal(b1-4)[Fuc(a1-3)]GlcNAc6S
Method in brief: as §1

[23] = target: Neu5Ac(a2-3)Gal6S(b1-4)GlcNAc
Method in brief: as §1

[24] = target: Neu5Ac(a2-3)Gal6S(b1-4)[Fuc(a1-3)]GlcNAc
Method in brief: as §1

Neu5Ac(a2-3)GalNAc = target: Neu5Ac(a2-3)GalNAc
Method in brief: as §1

[25] = target: Neu5Ac(a2-3)GalNAc(b1-4)GlcNAc
Method in brief: as §1

[26] = target: Neu5Ac(a2-3)[GalNAc(b1-4)]Gal(b1-4)Glc
Method in brief: as §1

[27] = target: Neu5Ac(a2-3)[GalNAc(b1-4)]Gal(b1-4)GlcNAc
Method in brief: as §1

[28] = target: Neu5Ac(a2-3)[GalNAc(b1-4)]Gal(b1-4)GlcNAc(b1-3)GalNAc
Method in brief: as §1

[29] = target: Neu5Ac(a2-3)[Neu5Ac(a2-6)]GalNAc
Method in brief: as §1

Neu5Ac(a2-6)Gal = target: Neu5Ac(a2-6)Gal
Method in brief: as §1

[30] = target: Neu5Ac(a2-6)Gal(b1-3)GlcNAc(b1-3)[Gal(b1-4)GlcNAc(b1-6)]Gal(b1-4)Glc
Method in brief: as §1

Neu5Ac(a2-6)Gal(b1-4)Glc = target: Neu5Ac(a2-6)Gal(b1-4)Glc
Method in brief: as §1

[31] = target: Neu5Ac(a2-6)Gal(b1-4)GlcNAc
Method in brief: as §1

[32] = target: Neu5Ac(a2-6)Gal(b1-4)GlcNAc(b1-2)Man
Method in brief: as §1

[33] = target: Neu5Ac(a2-6)Gal(b1-4)GlcNAc(b1-2)Man(a1-3)Man(b1-4)GlcNAc(b1-4)GlcNAc
Method in brief: as §1

[34] = target: Neu5Ac(a2-6)Gal(b1-4)GlcNAc(b1-2)Man(a1-3)[Gal(b1-4)GlcNAc(b1-2)Man(a1-6)]Man(b1-4)GlcNAc(b1-4)GlcNAc
Method in brief: as §1

[35] = target: Neu5Ac(a2-6)Gal(b1-4)GlcNAc(b1-2)Man(a1-3)[GlcNAc(b1-2)Man(a1-6)]Man(b1-4)GlcNAc(b1-4)GlcNAc
Method in brief: as §1

B1: DC-Sign (Homo sapiens), Q9NNX6 (protein)
chain: MSDSKEPRLQQLGLLEEEQLRGLGFRQTRGYKSLAGCLGHGPLVLQLLSFTLLAGLLVQVSKVPSSISQEQSRQDAIYQNLTQLKAAVGELSEKSKLQEIYQELTQLKAAVGELPEKSKLQEIYQELTRLKAAVGELPEKSKLQEIYQELTWLKAAVGELPEKSKMQEIYQELTRLKAAVGELPEKSKQQEIYQELTRLKAAVGELPEKSKQQEIYQELTRLKAAVGELPEKSKQQEIYQELTQLKAAVERLCHPCPWEWTFFQGNCYFMSNSQRNWHDSITACKEVGAQLVVIKSAEEQNFLQLQSSRSNRFTWMGLSDLNQEGTWQWVDGSPLLPSFKQYWNRGEPNNVGEEDCAEFSGNGWNDDKCNLAKFWICKKSAASCSRDEEQFLSPAPATPNPPPA
- glycan array binding signal (z-score) [1]: -0.177
- glycan array binding signal (z-score) [2]: -0.18
- glycan array binding signal (z-score) [3]: -0.115
- glycan array binding signal (z-score) [4]: -0.032
- glycan array binding signal (z-score) [5]: -0.143
- glycan array binding signal (z-score) [6]: -0.085
- glycan array binding signal (z-score) [7]: -0.205
- glycan array binding signal (z-score) [8]: -0.061
- glycan array binding signal (z-score) [9]: -0.074
- glycan array binding signal (z-score) [10]: -0.175
- glycan array binding signal (z-score) [11]: -0.171
- glycan array binding signal (z-score) [12]: -0.209
- glycan array binding signal (z-score) [13]: -0.194
- glycan array binding signal (z-score) [14]: -0.192
- glycan array binding signal (z-score) [15]: -0.16
- glycan array binding signal (z-score) [16]: -0.167
- glycan array binding signal (z-score) [17]: -0.111
- glycan array binding signal (z-score) [18]: -0.175
- glycan array binding signal (z-score) [19]: -0.065
- glycan array binding signal (z-score) [20]: -0.164
- glycan array binding signal (z-score) [21]: -0.114
- glycan array binding signal (z-score) [22]: -0.153
- glycan array binding signal (z-score) [23]: -0.193
- glycan array binding signal (z-score) [24]: -0.201
- glycan array binding signal (z-score) (Neu5Ac(a2-3)GalNAc): -0.171
- glycan array binding signal (z-score) [25]: -0.176
- glycan array binding signal (z-score) [26]: -0.167
- glycan array binding signal (z-score) [27]: -0.177
- glycan array binding signal (z-score) [28]: -0.171
- glycan array binding signal (z-score) [29]: -0.17
- glycan array binding signal (z-score) (Neu5Ac(a2-6)Gal): -0.152
- glycan array binding signal (z-score) [30]: -0.195
- glycan array binding signal (z-score) (Neu5Ac(a2-6)Gal(b1-4)Glc): -0.184
- glycan array binding signal (z-score) [31]: -0.174
- glycan array binding signal (z-score) [32]: -0.156
- glycan array binding signal (z-score) [33]: -0.161
- glycan array binding signal (z-score) [34]: -0.165
- glycan array binding signal (z-score) [35]: -0.199
